Results as given in PubChem BioAssay (NCATS).
This list was built around the results that the source calls inconclusive (neither active nor inactive); the mix of calls is not that of the screen. Where the call is inconclusive, the potency comes from a doubtful curve fit. The source made the active and inactive calls. Calls come from the whole dose curve; as a rule, active = well fitted inhibition curve with a large enough effect; inconclusive = small, poorly fitted or top-dose-only effect; inactive = no such curve, though single readings can be large or run the other way.

Assay: BET inhibitor-based combinations targeting novel dependencies in MECOM-rearranged (r) AML: HNT-34 cell line (AID 2202234); note: nearly all actives have a fitted effect of over 35% in size
Details: HNT-34 AML viability, CellTiter-Glo luminescence, 48 h; series mostly up to 46 µM
In short: (§1)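 Each compound is tested in an 11-point concentration series against 500 seeded cells/well for 48 hr. The luminescent viability signal is normalized to DMSO and blank wells, then reduced to AUC and a cell-line-centred Z-AUC.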
Potency is the fitted concentration of half-maximal effect; tags give direction and shape of the fitted curve.

Row | Structure (SMILES) | Potency
1 | COc1cc(C)[nH]c(=O)c1CNC(=O)c1c(C)n([C@H](C)C2CCN(CC(F)(F)F)CC2)c2ccccc12 | inactive
2 | CCCCCC[C@H]1C(=O)O[C@H](C)[C@H](NC(=O)c2cccc(NC=O)c2O)C(=O)O[C@@H](C)[C@@H]1OC(=O)CC(C)C | inconclusive: 7.42 µM [inhibitor, partial curve]
3 | CCNC(=O)CC1N=C(c2ccc(Cl)cc2)c2cc(OC)ccc2-n2c(C)nnc21 (configuration not stated) | inconclusive: 10.5 µM [inhibitor, partial curve]
4 | O=C(CBr)N1CC([N+](=O)[O-])([N+](=O)[O-])C1 | inconclusive: 34 µM [inhibitor, partial curve]
5 | Cc1c(N)nc([C@H](CC(N)=O)NC[C@@H](N)C(N)=O)nc1C(=O)N[C@H](C(=O)N[C@@H](C)[C@H](O)[C@@H](C)C(=O)N[C@@H](C(=O)NCCc1nc(-c2nc(C(=O)NCCC[S+](C)C)cs2)cs1)[C@@H](C)O)C(O[C@H]1O[C@H](CO)[C@H](O)[C@@H](O)[C@H]1O[C@H]1O[C@H](CO)[C@@H](O)[C@H](OC(N)=O)[C@@H]1O)c1cnc[nH]1 (some centres not stated) | active: 8.11 µM
6 | C[C@H](Nc1ncnc2nc[nH]c12)c1nc2ccc(F)cc2c(=O)n1-c1ccccc1 | inconclusive: 29.5 µM [inhibitor, partial curve]
7 | C[C@]12Cc3cn[nH]c3C[C@@H]1CC[C@@H]1[C@@H]2CC[C@@]2(C)[C@H]1CC[C@]2(C)O | inconclusive: 20.9 µM [inhibitor, partial curve]
8 | COC[C@H]1OC(=O)c2coc3c2[C@@]1(C)C1=C(C3=O)[C@@H]2CC[C@H](O)[C@@]2(C)C[C@H]1OC(C)=O | active: 5.25 µM
9 | CC1(C)CC[C@]2(NC(=O)C(C)(F)F)CC[C@]3(C)[C@H](C(=O)C=C4[C@@]5(C)C=C(C#N)C(=O)C(C)(C)[C@@H]5CC[C@]43C)[C@@H]2C1 | active: 1.66 µM
10 | NN=C(N)N | inactive
11 | COc1ccc(C(=O)c2c(C)n(CCN3CCOCC3)c3cc(I)ccc23)cc1 | inconclusive: 5.9 µM [inhibitor, full curve, poor fit]

Assay: BET inhibitor-based combinations targeting novel dependencies in MECOM-rearranged (r) AML: UCSD-AML1 cell line (AID 2202235); note: nearly all actives have a fitted effect of over 40% in size
Details: UCSD-AML1 AML cells viability, CellTiter-Glo, 48 h; series mostly up to 46 µM
In short: as §1

Row | Structure (SMILES) | Potency
12 | CC(=O)O[C@@]12CO[C@@H]1C[C@H](O)[C@@]1(C)C(=O)[C@H](O)C3=C(C)[C@@H](O)C[C@@](O)([C@@H](OC(=O)c4ccccc4)[C@H]21)C3(C)C | inconclusive: 37.2 µM [inhibitor, single point]
13 | C[C@@]12OC(=O)[C@]1([C@@H](O)[C@@H]1C=CCCC1)NC(=O)[C@@H]2CCCl | active: 0.0332 µM
14 | CC[C@@H](C(N)=O)N1CCCC1=O | inactive
15 | Cn1c(/C=C/CO)c(CO)c2c1C(=O)C=C(N1CC1)C2=O | inconclusive: 37.2 µM [inhibitor, single point]
16 | CCCCCC[C@H]1C(=O)O[C@H](C)[C@H](NC(=O)c2cccc(NC=O)c2O)C(=O)O[C@@H](C)[C@@H]1OC(=O)CC(C)C | inactive
17 | Cn1c(CCCCCCC(=O)NO)nc2cc(N(CCCl)CCCl)ccc21 | inconclusive: 2.63 µM [inhibitor, full curve, poor fit]
18 | C[C@H](Nc1ncnc2nc[nH]c12)c1nc2ccc(F)cc2c(=O)n1-c1ccccc1 | inconclusive: 0.833 µM [inhibitor, full curve]
19 | O=C(O)CNC(=O)c1c(O)c2ccccc2n(Cc2ccccc2)c1=O | inconclusive: 33.2 µM [inhibitor, single point]
20 | NN=C(N)N | inactive
21 | C/C1=C/C[C@@H](/C(C)=C/c2csc(C)n2)OC(=O)C[C@H](O)C(C)(C)C(=O)[C@H](C)[C@@H](O)[C@@H](C)CCC1 | active: 0.118 µM
22 | C/C(O)=C(\C#N)C(=O)Nc1cc(Br)ccc1Br | inactive
